# This is one part of the list.
# Columns and labels:
# Assay in all cases: glycan array binding signal (z-score within array); higher = stronger binding
# Details in all cases: glycan notation: IUPAC condensed, linker removed
# [1] = biological target: Gal(b1-4)GlcNAc(b1-2)Man(a1-6)[GlcNAc(b1-2)Man(a1-3)]Man(b1-4)GlcNAc(b1-4)GlcNAc
# Procedure, shortened: (§1)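 Arrays were curated from the Consortium for Functional Glycomics database, 3228 in total, and kept only where the protein sequence was available. Binding is expressed as a within-array Z-score. This score was averaged across arrays of the same protein sequence at different concentrations or buffers and across linkers, and negative values can be read as non-binding.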
# [2] = biological target: Gal(b1-4)GlcNAc(b1-2)Man(a1-6)[Man(a1-3)]Man(b1-4)GlcNAc(b1-4)GlcNAc
# Procedure, shortened: as §1
# [3] = biological target: Gal(b1-4)GlcNAc(b1-2)[Gal(b1-4)GlcNAc(b1-4)]Man(a1-3)[Gal(b1-4)GlcNAc(b1-2)Man(a1-6)]Man(b1-4)GlcNAc(b1-4)GlcNAc
# Procedure, shortened: as §1
# [4] = biological target: Gal(b1-4)GlcNAc(b1-2)[Gal(b1-4)GlcNAc(b1-4)]Man(a1-3)[Gal(b1-4)GlcNAc(b1-2)[Gal(b1-4)GlcNAc(b1-6)]Man(a1-6)]Man(b1-4)GlcNAc(b1-4)GlcNAc
# Procedure, shortened: as §1
# [5] = biological target: Gal(b1-4)GlcNAc(b1-2)[Gal(b1-4)GlcNAc(b1-4)]Man(a1-3)[GlcNAc(b1-4)][Gal(b1-4)GlcNAc(b1-2)Man(a1-6)]Man(b1-4)GlcNAc(b1-4)GlcNAc
# Procedure, shortened: as §1
# [6] = biological target: Gal(b1-4)GlcNAc(b1-2)[Gal(b1-4)GlcNAc(b1-4)]Man(a1-3)[GlcNAc(b1-4)][Gal(b1-4)GlcNAc(b1-2)[Gal(b1-4)GlcNAc(b1-6)]Man(a1-6)]Man(b1-4)GlcNAc(b1-4)GlcNAc
# Procedure, shortened: as §1
# [7] = biological target: Gal(b1-4)GlcNAc(b1-2)[Gal(b1-4)GlcNAc(b1-6)]Man(a1-6)[Gal(b1-4)GlcNAc(b1-2)Man(a1-3)]Man(b1-4)GlcNAc(b1-4)GlcNAc
# Procedure, shortened: as §1
# [8] = biological target: Gal(b1-4)GlcNAc(b1-2)[Gal(b1-4)GlcNAc(b1-6)]Man(a1-6)[Gal(b1-4)GlcNAc(b1-2)Man(a1-3)]Man(b1-4)GlcNAc(b1-4)[Fuc(a1-6)]GlcNAc
# Procedure, shortened: as §1
# [9] = biological target: Gal(b1-4)GlcNAc(b1-2)[Gal(b1-4)GlcNAc(b1-6)]Man(a1-6)[GlcNAc(b1-4)][Gal(b1-4)GlcNAc(b1-2)Man(a1-3)]Man(b1-4)GlcNAc(b1-4)GlcNAc
# Procedure, shortened: as §1
# [10] = biological target: Gal(b1-4)GlcNAc(b1-2)[Gal(b1-4)GlcNAc(b1-6)]Man(a1-6)[GlcNAc(b1-4)][Gal(b1-4)GlcNAc(b1-2)[Gal(b1-4)GlcNAc(b1-4)]Man(a1-3)]Man(b1-4)GlcNAc(b1-4)[Fuc(a1-6)]GlcNAc
# Procedure, shortened: as §1
# [11] = biological target: Gal(b1-4)GlcNAc(b1-3)Gal(b1-3)GalNAc
# Procedure, shortened: as §1
# [12] = biological target: Gal(b1-4)GlcNAc(b1-3)Gal(b1-3)GlcNAc
# Procedure, shortened: as §1
# [13] = biological target: Gal(b1-4)GlcNAc(b1-3)Gal(b1-4)Glc
# Procedure, shortened: as §1
# [14] = biological target: Gal(b1-4)GlcNAc(b1-3)Gal(b1-4)GlcNAc
# Procedure, shortened: as §1
# [15] = biological target: Gal(b1-4)GlcNAc(b1-3)Gal(b1-4)GlcNAc(b1-2)Man(a1-3)[Gal(b1-4)GlcNAc(b1-3)Gal(b1-4)GlcNAc(b1-2)Man(a1-6)]Man(b1-4)GlcNAc(b1-4)GlcNAc
# Procedure, shortened: as §1
# [16] = biological target: Gal(b1-4)GlcNAc(b1-3)Gal(b1-4)GlcNAc(b1-2)Man(a1-3)[Gal(b1-4)GlcNAc(b1-3)Gal(b1-4)GlcNAc(b1-2)Man(a1-6)]Man(b1-4)GlcNAc(b1-4)[Fuc(a1-6)]GlcNAc
# Procedure, shortened: as §1
# [17] = biological target: Gal(b1-4)GlcNAc(b1-3)Gal(b1-4)GlcNAc(b1-2)[Gal(b1-4)GlcNAc(b1-3)Gal(b1-4)GlcNAc(b1-6)]Man(a1-6)[Gal(b1-4)GlcNAc(b1-3)Gal(b1-4)GlcNAc(b1-2)Man(a1-3)]Man(b1-4)GlcNAc(b1-4)GlcNAc
# Procedure, shortened: as §1
# [18] = biological target: Gal(b1-4)GlcNAc(b1-3)Gal(b1-4)GlcNAc(b1-2)[Gal(b1-4)GlcNAc(b1-3)Gal(b1-4)GlcNAc(b1-6)]Man(a1-6)[Gal(b1-4)GlcNAc(b1-3)Gal(b1-4)GlcNAc(b1-2)Man(a1-3)]Man(b1-4)GlcNAc(b1-4)[Fuc(a1-6)]GlcNAc
# Procedure, shortened: as §1
# [19] = biological target: Gal(b1-4)GlcNAc(b1-3)Gal(b1-4)GlcNAc(b1-3)Gal(b1-4)GlcNAc
# Procedure, shortened: as §1
# [20] = biological target: Gal(b1-4)GlcNAc(b1-3)Gal(b1-4)GlcNAc(b1-3)Gal(b1-4)GlcNAc(b1-2)Man(a1-3)[Gal(b1-4)GlcNAc(b1-3)Gal(b1-4)GlcNAc(b1-3)Gal(b1-4)GlcNAc(b1-2)Man(a1-6)]Man(b1-4)GlcNAc(b1-4)GlcNAc
# Procedure, shortened: as §1
# [21] = biological target: Gal(b1-4)GlcNAc(b1-3)Gal(b1-4)GlcNAc(b1-3)Gal(b1-4)GlcNAc(b1-2)Man(a1-3)[Gal(b1-4)GlcNAc(b1-3)Gal(b1-4)GlcNAc(b1-3)Gal(b1-4)GlcNAc(b1-2)Man(a1-6)]Man(b1-4)GlcNAc(b1-4)[Fuc(a1-6)]GlcNAc
# Procedure, shortened: as §1
# [22] = biological target: Gal(b1-4)GlcNAc(b1-3)Gal(b1-4)GlcNAc(b1-3)Gal(b1-4)GlcNAc(b1-2)[Gal(b1-4)GlcNAc(b1-3)Gal(b1-4)GlcNAc(b1-3)Gal(b1-4)GlcNAc(b1-6)]Man(a1-6)[Gal(b1-4)GlcNAc(b1-3)Gal(b1-4)GlcNAc(b1-3)Gal(b1-4)GlcNAc(b1-2)Man(a1-3)]Man(b1-4)GlcNAc(b1-4)[Fuc(a1-6)]GlcNAc
# Procedure, shortened: as §1
binder,measurement,setting,value
"Dectin2 (Homo sapiens), Q6EIG7 (protein) MMQEQQPQSTEKRGWLSLRLWSVAGISIALLSACFIVSCVVTYHFTYGETGKRLSELHSYHSSLTCFSEGTKVPAWGCCPASWKSFGSSCYFISSEEKVWSKSEQNCVEMGAHLVVFNTEAEQNFIVQQLNESFSYFLGLSDPQGNNNWQWIDKTPYEKNVRFWHLGEPNHSAEQCASIVFWKPTGWGWNDVICETRRNSICEMNKIYL",glycan array binding signal (z-score),[1],-0.191
same,glycan array binding signal (z-score),[2],-0.207
same,glycan array binding signal (z-score),[3],0.09
same,glycan array binding signal (z-score),[4],-0.187
same,glycan array binding signal (z-score),[5],-0.148
same,glycan array binding signal (z-score),[6],-0.17
same,glycan array binding signal (z-score),[7],-0.135
same,glycan array binding signal (z-score),[8],-0.093
same,glycan array binding signal (z-score),[9],-0.138
same,glycan array binding signal (z-score),[10],-0.138
same,glycan array binding signal (z-score),[11],-0.202
same,glycan array binding signal (z-score),[12],0.194
same,glycan array binding signal (z-score),[13],-0.151
same,glycan array binding signal (z-score),[14],-0.206
same,glycan array binding signal (z-score),[15],0.613
same,glycan array binding signal (z-score),[16],-0.105
same,glycan array binding signal (z-score),[17],0.147
same,glycan array binding signal (z-score),[18],-0.033
same,glycan array binding signal (z-score),[19],-0.191
same,glycan array binding signal (z-score),[20],0.27
same,glycan array binding signal (z-score),[21],-0.086
same,glycan array binding signal (z-score),[22],-0.002
